# Measurements taken from the supplement of paper PMC11417369.
# ± gives the standard deviation of the averaged measurements. The list shows a part of the results.
# Tested on: PfAP2-I AP2 domain 3 (GST-tagged)
# Experiment: gcPBM binding intensity (ln(normalized median fluorescence intensity)); higher = stronger DNA binding
# Method in brief: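 The binding buffer was 1× PBS containing 1% milk, 0.2 mg/ml BSA, 0.5% salmon testes DNA and 0.03% Triton X-100. In it, GST-tagged P. falciparum DNA-binding domains expressed in E. coli were applied for 1 h to an Agilent 4 × 180k array of primer-extended double-stranded 36-bp intergenic genomic probes plus negative controls. Binding intensity, read with Alexa488 anti-GST antibody and a 488 nm scan, is the highest Masliner-normalised natural-log median intensity across replicate spots of either probe orientation.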
row,Sequence,gcPBM binding intensity (ln)
1,ATAATATTATGAACCTGTACATAATTTTTCTTTTCT [XGTACX_site3377],7.53 ± 0.5
2,TATAATTTTTTTGAATTATATATATATATATATAAT [XGTACX_negctrl_site26],7.82 ± 0.4
3,AGTATATTTCTAACTTGTACGAAATTAATAATTTAT [XGTACX_site6635],7.62 ± 0.29
4,TAATTAAATAAAAAAAAATATATATATATATATATA [XGTACX_negctrl_site616],9.43 ± 0.45
5,TTTTTTAAAAATAACTGTACAGAGGCTGTTAGGATA [XGTACX_site2521],8.2 ± 0.38
6,AGACAATATTAATAAGGTACACATATATATTAAAAA [XGTACX_site6709],7.98 ± 0.38
7,AGCCCTTTTTTTTTTTAGAATATTGCATAATTATAT [XGTACX_negctrl_site546],8.03 ± 0.7
8,GTATTGTATGGATGGGGTACTATATATATATATTTT [XGTACX_site1694],8.77 ± 0.49
9,TATATAAATATATCCACACACATACCTATATTAATA [CACACA_site6184],7.83 ± 0.33
10,TTTATATGTTTTAAGTGTACACATATAATGTATTTT [XGTACX_site3069],7.92 ± 0.28
11,TAAGGGAGAGATTTGTATCATAAGCAACTTTCAAAA [CACACA_negctrl_site1436],7.71 ± 0.23
12,TTATAATTAAATTTCACACAGTTCATAACATAATTA [CACACA_site5501],7.55 ± 0.49
13,ACTTTCAACATGAAGTTGCACTTTTTTTTTTTTCTT,8.74 ± 0.91
14,ATTATTAAAAATATGGGTACATATTATTGTTATATA [XGTACX_site1958],7.59 ± 0.2
15,CACACTTGCTCCTGTTGTACATAACCATAAGCAACA [XGTACX_site2102],8.24 ± 0.49
16,TGAATATAACAAATATGTACTTAAAATTGTTATATT [XGTACX_site5679],7.59 ± 0.46
17,TAAAGAAATAAATACATACACACATATATATATATA [CACACA_site3363],9.48 ± 0.53
18,AAACTTTACATTACTTGTACATATATTCTATATAAT [XGTACX_site8640],8.01 ± 0.59
19,AAAAAAAAAAAAAAATGTACATGACATGACATGACA [XGTACX_site4020],8.16 ± 0.45
20,TTATATTTTACAAATGCACACATAATTTTTTTTTTT [CACACA_site8890],9.04 ± 0.19
21,TTTGATAATAAGATATAATACTTAAATATATATATA [GTGCAC_negctrl_site339],9.09 ± 0.21
22,AAATATATATTCAAAAGTACACAATTTGTTAATAAT [XGTACX_site8917],7.8 ± 0.48
23,TATTTTACGCGGTTTATAATGACATGTTCTATATTT [CACACA_negctrl_site1184],7.83 ± 0.65

row,Sequence,gcPBM binding intensity (ln)
1,TAAATATATAAATACACACACACCAAAGCAATAGAT [CACACA_site5605],8.21 ± 0.65
2,TCCATATGCATGTATTGTACTGTAATATATTAAAAA [XGTACX_site472],7.86 ± 0.38
3,AGCAGTCGACAGGACAGTACACAGTAGCCAGGAAAT [XGTACX_site4929],7.75 ± 0.76
4,AAAAAAAAAAAAGAAACACACACATATATATATATA [CACACA_site8525],9.38 ± 0.14
5,GCTTATATTAATAAGGTGCTTTTTATTTCGTGTGTA [GTGCAC_site9649],9.06 ± 0.15
6,AATATGTACAGACATACACACATATTTATATTTATA [CACACA_site6694],7.79 ± 0.4
7,TTATATAAAGAATGTACACACAGAAATGCACAGACA [CACACA_site5288],9.43 ± 0.29
8,TCATAGTATAAACACACACACACACCCATATATATA [CACACA_site8512],8.43 ± 0.63
9,TAGTATTAAATATATACACACATATATACCTATAGA [CACACA_site5219],7.63 ± 0.55
10,TGAAAAGATAAAAAAAGTACACACACACATATATAT [XGTACX_site6504],8.31 ± 0.52
11,AAAAATTCAATAGGACGTACTAAAACATTCATTAAT [XGTACX_site1712],7.71 ± 0.6
12,TTATAAATAATGAGAAACATTAAATTTAATCATAAA [CACACA_negctrl_site523],7.51 ± 0.41
13,TTTAGTGTTATAAAAAGTACATAATAATTCCTTTTC [XGTACX_site3208],7.74 ± 0.25
14,TACTATATATATATATATATATATATATATATTTAT [GTGCAC_negctrl_site593],8.32 ± 0.26
15,TAAAAAAATTATATTTGTACATATTAATATAGCCTT [XGTACX_site4833],7.47 ± 0.42
16,AAACGTATTCTATAAAGTACATTATTATAGTAGACC [XGTACX_site8068],7.77 ± 0.48
17,TATTGAATAAAATGCACACGCATGCGTTATTTATTA [CACACA_site3479],8.9 ± 0.21
18,AAAATATTTATTTTTTGTACACATAAAAACGCACTT [XGTACX_site4132],8.98 ± 0.16
19,CATATTTTGTGAAAAAGTACATATATATATATATAT [XGTACX_site6295],9.36 ± 0.3
20,ATATGTCCATATAGTAAATGTTACATTTTAAAGCGC [XGTACX_negctrl_site168],7.67 ± 0.56
21,ATTCTTAAAAAATAAGTGCAAAATAATTAAATAAAT,10.23 ± 0.014
22,AGAATGGTTTATAAAGGTACGTAATTTTTAATTTTA [XGTACX_site383],7.54 ± 0.49
